# Source: paper PMC4336329 (PLoS ONE, 2015)
# The whole screen tested about 310,000 compounds, of which about 2,200 (0.71%) showed an effect of 50% or more. Effects have a minus sign here. Some of the results follow.
# Biological target: human ether-à-go-go-related gene (hERG) potassium channel (human, UniProt Q12809)
# Test: primary screen, population patch clamp on CHO cells stably expressing hERG
# Chain of human ether-à-go-go-related gene (hERG) potassium channel (Q12809 whole entry, looked up): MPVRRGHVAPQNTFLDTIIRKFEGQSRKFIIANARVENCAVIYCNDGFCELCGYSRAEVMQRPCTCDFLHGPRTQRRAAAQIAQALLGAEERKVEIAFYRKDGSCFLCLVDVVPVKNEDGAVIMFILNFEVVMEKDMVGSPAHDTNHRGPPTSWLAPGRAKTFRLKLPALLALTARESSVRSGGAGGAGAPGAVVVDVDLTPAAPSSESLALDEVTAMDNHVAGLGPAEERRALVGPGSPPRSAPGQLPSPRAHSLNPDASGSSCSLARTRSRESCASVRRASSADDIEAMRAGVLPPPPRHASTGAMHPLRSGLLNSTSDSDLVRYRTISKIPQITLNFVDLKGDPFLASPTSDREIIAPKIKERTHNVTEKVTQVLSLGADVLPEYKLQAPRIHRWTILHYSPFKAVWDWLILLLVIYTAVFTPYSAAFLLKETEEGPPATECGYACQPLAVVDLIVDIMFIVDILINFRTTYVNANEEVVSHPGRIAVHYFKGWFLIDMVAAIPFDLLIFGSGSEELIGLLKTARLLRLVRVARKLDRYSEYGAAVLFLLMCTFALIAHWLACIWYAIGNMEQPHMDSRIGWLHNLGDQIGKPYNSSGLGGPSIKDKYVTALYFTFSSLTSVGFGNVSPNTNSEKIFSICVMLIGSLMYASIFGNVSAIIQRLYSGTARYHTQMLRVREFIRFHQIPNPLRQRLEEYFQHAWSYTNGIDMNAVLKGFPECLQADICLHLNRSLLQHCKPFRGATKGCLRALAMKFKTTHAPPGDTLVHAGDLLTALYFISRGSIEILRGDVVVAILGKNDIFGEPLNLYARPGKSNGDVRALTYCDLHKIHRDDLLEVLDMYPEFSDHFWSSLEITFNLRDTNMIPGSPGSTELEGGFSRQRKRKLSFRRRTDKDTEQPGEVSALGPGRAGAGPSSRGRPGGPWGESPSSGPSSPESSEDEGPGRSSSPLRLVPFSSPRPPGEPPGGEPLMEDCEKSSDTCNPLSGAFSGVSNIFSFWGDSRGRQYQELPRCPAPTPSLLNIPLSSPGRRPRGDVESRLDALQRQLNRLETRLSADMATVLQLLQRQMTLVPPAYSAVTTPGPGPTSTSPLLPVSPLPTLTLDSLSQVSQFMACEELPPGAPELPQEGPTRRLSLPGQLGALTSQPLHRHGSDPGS
row,SMILES,"hERG current change (%, negative = inhibition) at 1uM [%]"
1,O=S(=O)(Cc1nnnn1-c1ccccc1)c1ccccc1,10.9
2,Nc1c(N(CCC2=CCCCC2)C(=O)c2ccccc2F)c(=O)[nH]c(=O)n1Cc1ccccc1,6.84
3,O=C(NCCO)c1ccc(Cl)c(Cl)c1,8.39
4,c1ccc(C[C@H]2CNCCN2CCc2cccc3ccccc23)cc1,4.66
5,Cc1cccc(C)c1OCC(=O)Nc1ccc(N2CCOCC2)cc1,7.29
6,CCOc1ccc(N(CC(=O)N2CCCCCC2)S(=O)(=O)c2ccc(F)cc2)cc1,-15
7,CCN(Cc1ccccc1)C(=O)Cn1c(=O)n(-c2ccc(OC)cc2OC)c(=O)c2c(C)c(C)sc21,3.19
8,Cc1oc(-c2ccccc2F)nc1CS(=O)(=O)CC(=O)NC1CCCC1,7.68
9,COC(=O)c1c(C)oc2ccc(OC(=O)N3CCOCC3)cc12,11.1
10,Cc1ccnc(SCc2cn3c(C)cc(C)nc3n2)n1,4.64
11,CCCCn1c(O)c(C(C)=NCc2cccnc2)c(=O)[nH]c1=O,5.18
12,CC(=O)Nc1ccc(/C(C)=N/Nc2nc(Nc3cccc4ccccc34)nc(N3CCOCC3)n2)cc1.CCO,11.9
13,CC(=O)c1cnn(-c2cc(Oc3cccc(C)c3)ncn2)c1C,16
14,COc1ccccc1NC(=O)Cc1nnc(SCC(=O)NC2CCCC2)n1C,12.6
15,CCOC(=O)N1CCN(C(=O)c2nn(-c3ccc(C)cc3)c(=O)c3c2c2ccccc2n3C)CC1,9.14
16,CCOCCOC(=O)c1[nH]c2c(c1C)C(=O)CC(c1cc(OC)c(OC)c(OC)c1)C2 (stereo not shown),-2.15
17,COc1ccc(OC)c(C(=O)NC(CC(N)=O)c2ccc(N3CCN(c4ccccc4)CC3)c([N+](=O)[O-])c2)c1 (stereo not shown),17.1
18,O=C(Cc1ccc(S(=O)(=O)N2CCOCC2)s1)Nc1ccc(N2CCOCC2)cc1,21.8
19,Cc1ccc(NC(=O)/C(Cl)=C/c2ccccc2)cc1C,2.13
20,CCCOc1cc(CN2CCCCC2)cc(C(C)=O)c1.Cl,7.46
21,CCN(CC)CCCN(C(=O)c1ccco1)c1nc(-c2ccc(C)cc2)cs1.Cl,-90.2
22,COCC(C)n1c(=O)sc2ccccc2c1=O (stereo not shown),-1.66

row,SMILES,"hERG current change (%, negative = inhibition) at 1uM [%]"
1,CC(C)(C)N1CC(C(=O)Nc2ccc(S(N)(=O)=O)cc2)CC1=O (stereo not shown),9.73
2,Cc1cc(NC(=O)CSCC(=O)Nc2nc3ccccc3[nH]2)no1,17.4
3,COc1ccc2oc(-c3ccc(C)c(NC(=O)c4ccc(N5CCOCC5)c([N+](=O)[O-])c4)c3)nc2c1,-5.93
4,CCCN(CCC)CCCn1c(=O)[nH]c2ccccc21.Cl,14.2
5,CCOC(=O)COc1c(OC)cc(Cl)cc1C1Nc2ccccc2C(=O)N1c1ccccc1 (stereo not shown),10.4
6,Cc1ccc(S(=O)(=O)N2CCCNCC2)cc1,13.1
7,COc1ccc(S(=O)(=O)NCC(c2ccc3c(c2)OCO3)N2CCN(c3ccccc3)CC2)cc1 (stereo not shown),9.76
8,COc1ccc(CCNC(=O)CN2C(=O)COc3ccc(S(=O)(=O)N4CCOCC4)cc32)c(OC)c1,4.22
9,COc1ccc(N2CC(C(=O)NCCC3=CCCCC3)CC2=O)cc1 (stereo not shown),7.66
10,O=C(COC(=O)c1cc(Br)ccc1Cl)NC(=O)NCc1ccccc1,10.1
11,Cc1cc(C)nc(-n2nc(C)cc2NC(=O)c2cccc(S(=O)(=O)N(C)C)c2)n1,8.89
12,CCC(CNc1cc(OC)cc2cccnc12)NC1CCCCC1 (stereo not shown),1.83
13,Cc1nc(-c2ccccc2)nc2sc(C(=O)c3ccc(F)cc3)c(N)c12,5.58
14,CCOc1ccc(Nc2nc(N3CCCCC3)nc(N3CCCCC3)n2)cc1,2.11
15,COc1ccc(N(C(=O)Cn2nnc3ccccc32)C(C(=O)NC(C)(C)C)c2ccc(OC)c(O)c2)cc1 (stereo not shown),14.6
16,CCN(CC)C(=O)c1ccc(S(=O)(=O)N2CCC(c3nc4ccccc4s3)CC2)cc1,2.13
17,CCOc1ccc(OCC(=O)Nc2ccc(OC)cc2[N+](=O)[O-])cc1,8.89
18,COc1cccc(NC(=O)C2CCC(CNS(=O)(=O)c3cccs3)CC2)c1 (stereo not shown),16.1
19,O=C(COC(=O)Cc1ccsc1)Nc1cccc(Cl)c1,0.601
20,CS(=O)(=O)Nc1ccc(-c2n[nH]c(=S)n2-c2ccccc2)cc1,-6.01
21,COc1ccc(NS(=O)(=O)c2csc(C(=O)Nc3ccccc3)c2)cc1,9.66
22,CCC1(C)NC(=O)N(CC(=O)N2CCC(Cc3ccccc3)CC2)C1=O (stereo not shown),11.1

row,SMILES,"hERG current change (%, negative = inhibition) at 1uM [%]"
1,O=C(c1ccc(Cl)cc1)c1ccc(OCC(O)CN2CCCCC2)cc1 (stereo not shown),-42.2
2,COC(=O)c1ccc2c(=O)n(-c3ccccc3)c(=S)[nH]c2c1,11.8
3,Cc1c(CNC2CCCC2)c(C(=O)O)c(C)n1Cc1ccccc1,10.7
4,NC(=S)N=Nc1c(O)n(Cc2ccc(Br)cc2)c2ccccc12,13.9
5,CCOC(=O)/C=C/C(=O)Nc1ccc(S(=O)(=O)Nc2nccs2)cc1,9.05
6,COc1ccc(C2=NN(CC(=O)NCc3ccco3)C(=O)CC2)cc1,9.02
7,CCCCc1ccc(NC(=S)NCc2cccs2)cc1,22.6
8,CCCCCCCCC(=O)N/N=C(\C)c1ccco1,10.1
9,COc1ccc(S(=O)(=O)[O-])cc1P(=O)(c1ccccc1)c1ccccc1.[Na+],6.37
10,CC(C)CNC(=O)c1cccc(NC(=O)Cc2ccc(Br)cc2)c1,8.87
11,N#Cc1ccc(NC(=O)Cn2cnc(S(=O)(=O)N3CCCC3)c2)cc1,15.7
12,CN(C(=O)CCS(=O)(=O)c1cc2c(cc1Cl)NC(=O)CO2)C1CCCCC1,7.08
13,CC(=NCc1ccco1)c1c(C)[nH]n(-c2nc3ccccc3s2)c1=O,6.83
14,CC(C(=O)Nc1ccc2c(c1)OCCO2)N(c1ccccc1)S(C)(=O)=O (stereo not shown),4.8
15,CC(=O)N1CCN(c2nc(-c3cccs3)nc3ccccc23)CC1,-49.4
16,CN(C)S(=O)(=O)c1ccc(N2CCCC2)c(C(=O)NNC(=O)COc2ccccc2F)c1,-30
17,COc1ccc(-c2cc(C(=O)O)nc3ccc4ccccc4c23)cc1OC,14.1
18,CC(C)(C)NC(=O)COC(=O)c1cc(F)c(F)cc1Cl,11.7
19,CS(=O)(=O)N(CC(=O)NCc1ccco1)c1ccc(Cl)c(C(F)(F)F)c1,4.04
20,CCCCNC(=S)N/N=C/c1ccc(C#N)cc1,17
21,CCCNC(=O)COc1ncnc2sccc12,0.673
22,CCN1CCSc2ccc(C(=O)NCc3ccccc3C)cc21,6.38

row,SMILES,"hERG current change (%, negative = inhibition) at 1uM [%]"
1,CSCCC(NC(=O)c1cncc(Br)c1)C(=O)O (stereo not shown),2.94
2,O=C(NCCCn1ccnc1)c1ccco1,5.46
3,CC(C)(C)NS(=O)(=O)c1cc(C(=O)Nc2sccc2C#N)ccc1Cl,16.1
4,CCOc1ccccc1NC(=O)Nc1ccc(Cl)cc1,-3.98
5,CCOC(=O)N1CCN(C(=O)Nc2ccccc2Cl)CC1,11.8
6,COc1ccc(OC)c(C2C(C(=O)c3ccco3)=C(O)C(=O)N2CCN2CCOCC2)c1 (stereo not shown),10.5
7,CN1Cc2ccccc2CC1CNCc1c(C(=O)N2CCCC2)nc2ccccn12 (stereo not shown),-42
8,O=C(c1cccc(NS(=O)(=O)c2ccccc2)c1)N1CCCCC1,0.63
9,Cc1ccc(-n2nnnc2SCc2ccc(C(=O)O)cc2)cc1C,-80.9
10,O=[N+]([O-])c1cccnc1Oc1ccc(OCc2ccccc2)cc1,0.0337
11,Cc1cccc(N2CCN(C(=O)c3ccc4c(c3)CCN4S(C)(=O)=O)CC2)c1C,9.95
12,Cc1n(CC(O)COC2CCCCC2)c2ccccc2[n+]1C.[I-] (stereo not shown),4.62
13,CC(=O)c1c(C)[nH]c(C(=O)OCC(=O)N(C)C)c1C,3.44
14,Cc1ccc(NC(=O)CN2CCCCCC2)cc1Br.Cl,5.2
15,C[C@H](CCC(=O)O)[C@H]1CC[C@H]2[C@@H]3[C@H](O)C[C@@H]4C[C@H](O)CC[C@]4(C)[C@H]3C[C@H](O)[C@]12C,10.9
16,Fc1ccc(CN2CCCCCCC2)c(F)c1,14.2
17,C=CCNC(=O)C12CC3CC(C1)CC(C(=O)NCC=C)(C3)C2,-3.26
18,N#CCCN(CC(=O)O)S(=O)(=O)c1ccccc1,7.84
19,Cc1nccn1-c1ccc(C(F)(F)F)cc1[N+](=O)[O-],12.9
20,O=C(NCc1cccc(C(F)(F)F)c1)c1ccc[nH]1,10.1
21,CCCn1c(SCC(=O)Nc2cccc(Cl)c2Cl)n[nH]c1=O,12.6
22,Cn1c(O)c(/C=C2\N=c3ccccc3=C2CCNC(=S)NC2CC2)c(=O)n(C)c1=O,-24.1
